# PubChem BioAssay AID1347417 (National Center for Advancing Translational Sciences (NCATS), 2020)
# The campaign covered roughly 120,000 compounds. About 5,300 (4.4%) were called active. The shares of active, inactive and inconclusive entries below differ from those in the screen. Calls come from the whole dose curve; as a rule, active = well fitted inhibition curve with a large enough effect; inconclusive = small, poorly fitted or top-dose-only effect; inactive = no such curve, though single readings can be large or run the other way. Potencies of inconclusive entries are doubtful fits and often do not repeat.
# Test: qHTS Primary assay for Inhibitors of Plasmodium falciparum Dd2 growth in vitro; note: nearly all actives have a fitted effect of over 65% in size;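 for activity, negative = inhibition: plate controls were DMSO vehicle for no effect and reference drug for full effect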
# Details: P. falciparum Dd2 growth, SYBR Green, 72 h; activity, negative = inhibition: at 28.9 µM (top of the series) unless noted; series mostly up to 28.9 µM
# Procedure, shortened: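 Infected erythrocytes (Dd2, 0.3% parasitemia, 2.5% hematocrit final) are added to compound in RPMI-1640/Albumax II medium, grown 72 h at 37C in low oxygen, then lysed with saponin/Triton-X containing SYBR Green and read by fluorescence.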
# Potency is the fitted concentration of half-maximal effect; tags give direction and shape of the fitted curve.
Structure (SMILES),Potency,"activity, negative = inhibition",outcome
O=C(NCCC1=CCCCC1)c1ccc2c(c1)N(Cc1ccc(Cl)cc1)C(=O)c1ccccc1S2=O (stereo not drawn),"inconclusive: 11.2 µM [inhibitor, single point]",–,–
Cc1cc(S(=O)(=O)N[C@H]2[C@H]3CCO[C@H]3[C@@H]2N2CCCCC2)n(C)n1,"inconclusive: 15.8 µM [inhibitor, partial curve, poor fit]",–,–
Cc1nc(-c2ccccc2OC2CN(S(=O)(=O)Cc3ccccc3F)C2)no1,"inconclusive: 1.58 µM [inhibitor, full curve, poor fit]",–,–
COCCn1ncc(N2CCCC(CC(=O)NCc3ccc(Cl)cc3)C2)cc1=O (stereo not drawn),–,inactive: 6.53%,–
CCc1ccccc1N(c1nc(-c2ccc(OC)c(OC)c2)no1)c1nc(-c2ccc(OC)c(OC)c2)no1,"inconclusive: 3.98 µM [inhibitor, single point]",–,–
Cc1cc(C)n(CCC(=O)N2CCCn3cc(-c4ccccc4)nc32)n1,"inconclusive: 7.94 µM [inhibitor, single point]",–,–
CCN1C(=O)c2ccccc2Sc2ccc(NC(=O)Cc3ccc(OC)cc3)cc21,"inconclusive: 10 µM [inhibitor, partial curve, poor fit]",–,–
CCCn1cc(S(=O)(=O)c2cc(C)ccc2C)c(=O)c2cc(F)c(N3CCCCCC3)cc21,"inconclusive: 17.8 µM [inhibitor, single point]",–,–
CC(C)CC(=O)Nc1nnc2n1CCS2,–,inactive: 39.9%,–
Cc1ccc(CN2CCc3nc(N(C)Cc4cccnc4)[nH]c(=O)c3CC2)s1,–,inactive: 62% [at 5.79 µM],–
CCC(C)NC(=O)c1ccc2c(c1)N=C(C)c1cc(C)ccc1S2 (stereo not drawn),"inconclusive: 11.2 µM [inhibitor, single point]",–,–
CC(C)(C)OC(=O)N1CCC(c2c(C(=O)NCc3ccccn3)cnn2-c2ccc(F)cc2)CC1,"inconclusive: 10 µM [inhibitor, single point]",–,–
Cc1nc(-c2cccs2)cc([C@H]2CN3CC[C@H]2C[C@@H]3CNC(=O)c2ccc3c(c2)OCO3)n1,active: 8.91 µM,–,–
Cc1ccc(NC(=O)CN2C(=O)CN=C(c3ccccc3)c3ccccc32)c(C)c1,"inconclusive: 11.2 µM [inhibitor, single point]",–,–
Cc1cc(C)c2c(=O)cc(C(=O)Nc3ccc(S(=O)(=O)Nc4onc(C)c4C)cc3)oc2c1,"inconclusive: 20 µM [inhibitor, single point]",–,–
Cc1cnc(C2CCOCC2)n1CCNC(=O)C1(c2ccccc2)CCCC1,"inconclusive: 2.51 µM [inhibitor, partial curve]",–,–
CCC1CN(C(=O)c2ccc(C)c(F)c2F)CCC(=O)N1Cc1ccccc1 (stereo not drawn),–,inactive: -12.2%,–
O=C(Nc1ccccc1)N1CCCC(c2nn(-c3ccc(Cl)cc3)c(=O)[nH]2)C1 (stereo not drawn),"inconclusive: 17.8 µM [inhibitor, single point]",–,–
OC[C@@H]1CN(Cc2ccccn2)C[C@H]1c1nc(-c2cccnc2)no1,"inconclusive: 10 µM [inhibitor, single point]",–,–
Cc1nc(CN2C(=O)OC3(CCN(C(=O)c4ccc(Oc5ccccc5)cc4)CC3)C2(C)c2ccccc2)cs1 (stereo not drawn),"inconclusive: 0.316 µM [inhibitor, full curve, poor fit]",–,–
Cc1ccc(Cc2nc3ccccc3nc2SCC(=O)NCCc2ccccc2)cc1,"inconclusive: 15.8 µM [inhibitor, single point]",–,–

Structure (SMILES),Potency,"activity, negative = inhibition",outcome
CCn1cc(C(=O)NCc2ccccc2OC)c(=O)c2cc(S(=O)(=O)N3CCCCCC3)ccc21,"inconclusive: 11.2 µM [inhibitor, single point]",–,–
COc1cccc(N2C(=O)NC(=NC3CCCCC3)C23CCN(C(=O)c2ccccc2F)CC3)c1,"inconclusive: 10 µM [inhibitor, single point]",–,–
COc1cccc(C(=O)N2CCC(N3C[C@H](O)C[C@H]3C(=O)NCc3cc(F)cc(F)c3)CC2)c1,"inconclusive: 17.8 µM [inhibitor, single point]",–,–
CCOc1ccc(C(=O)Nc2ccc(-c3nnc4n3CCCC4)cc2)cc1,"inconclusive: 7.08 µM [inhibitor, partial curve, poor fit]",–,–
COc1ccc(-c2cc(OC(=O)c3cccc(C)c3)c3c(C)oc(C)c3c(=O)c2)cc1,"inconclusive: 10 µM [inhibitor, single point]",–,–
CC1=C[C@@H](CNS(=O)(=O)c2ccc(F)cc2)[C@H](C(C)C)C[C@H]1CC(=O)NCCN(C)C,"inconclusive: 3.98 µM [inhibitor, single point]",–,–
CC(=O)Nc1ccc(NC(=O)c2c(C)nn(-c3ccccc3)c2-n2cccc2)cc1,"inconclusive: 17.8 µM [inhibitor, single point]",–,–
NC(=O)c1cccc(-c2cc3c(cn2)CN(CCc2ccccc2)CCN3)c1,"inconclusive: 20 µM [inhibitor, partial curve, poor fit]",–,–
Cc1ccc(CNC(=O)c2ccc3c(c2)nc2n3CCCC2)cc1,–,inconclusive: -44.6% [inhibitor] [at 5.79 µM],–
Cn1c(C(=O)NCCN2CCCCC2)cc2c1CCN(Cc1cccc(F)c1)C2,"inconclusive: 1.41 µM [inhibitor, full curve, poor fit]",–,–
CN1C(=O)c2cccn2CC1C(=O)NCCCN1CCc2ccccc2C1 (stereo not drawn),"inconclusive: 12.6 µM [inhibitor, single point]",–,–
CC(=O)N1CC2(CCCN(C(=O)CCC(=O)O)C2)Cc2ccccc21 (stereo not drawn),–,inactive: 0.133%,–
O=C(NC[C@H]1OC[C@@H](NC2CCC2)[C@@H]1O)c1ccccc1,–,inactive: -25.9% [at 44.1 µM],–
O=C1N(C2CCOCC2)C[C@H]2CN(CCCc3ccccc3)CCN12,"inconclusive: 1 µM [inhibitor, single point]",–,–
COc1ccc(/C=C/CN2CCC3(CC2)C(=O)N(Cc2cccnc2)C(=O)N3C)cc1,–,inactive: -26.5%,–
CN1C(=O)Cc2cc(S(=O)(=O)CCC(=O)N3CCN(c4cccc(Cl)c4)CC3)ccc21,–,inactive: -8.22%,–
CCOc1ccccc1CN1CCCC(c2nc(-c3cccnc3)no2)CCNC(=O)CC1 (stereo not drawn),active: 3.98 µM,–,–
CCc1ccc(S(=O)(=O)c2nnn3c2nc(NCCOC)c2ccccc23)cc1,–,inactive: -15.1%,–
COCC1CN(C(C)=O)CC12CCN(S(=O)(=O)c1c(C)noc1C)CC2 (stereo not drawn),–,inactive: 16.9%,–
CCC1=C(C(=O)OC)C(c2ccccc2F)N2C(CC(=O)NC3CC3)=CSC2=N1 (stereo not drawn),"inconclusive: 1.58 µM [inhibitor, partial curve, poor fit]",–,–
CCc1ccc(S(=O)(=O)c2cn(C)c3cc(F)c(F)cc3c2=O)cc1,–,inactive: -15.6%,–

Structure (SMILES),Potency,"activity, negative = inhibition",outcome
O=C1NC(=NC2CCCCC2)C2(CCCN(Cc3cccnc3)C2)N1c1cc(F)cc(F)c1 (stereo not drawn),"inconclusive: 3.98 µM [inhibitor, partial curve, poor fit]",–,–
COCC1CN(C(C)=O)CC12CCN(Cc1ccc(Br)o1)CC2 (stereo not drawn),"inconclusive: 3.98 µM [inhibitor, single point]",–,–
COCCN1C(=O)CS(=O)(=O)C12CCN(C(=O)C1(c3ccc(OC)cc3)CC1)CC2,–,inactive: -3.61%,–
CN(Cc1ccccc1C(F)(F)F)C(=O)c1ccccc1F,–,inactive: -0.424% [at 44.1 µM],–
CCOCCOC1CCN(C(=O)C2(S(=O)(=O)c3ccc(Cl)cc3)CC2)CC1,–,–,inactive
O=C(NC1CCCN(c2cc(-c3ccc(F)cc3)[nH]n2)C1)c1cccc(Cl)c1 (stereo not drawn),"inconclusive: 0.501 µM [inhibitor, partial curve, poor fit]",–,–
CN1CCNc2nc(COc3ccc(Oc4ccccc4)cc3)n(Cc3ccccc3)c2C1=O,"inconclusive: 0.251 µM [inhibitor, full curve, poor fit]",–,–
COC[C@H]1C[C@@H](NC(=O)Nc2cccc(-c3noc(C)n3)c2)[C@H](O)[C@@H]1O,"inconclusive: 10 µM [inhibitor, partial curve]",–,–
COc1ncccc1CN1CCC2(CC1)OC(=O)N(Cc1ccc(O)cc1)C2(C)c1ccccc1 (stereo not drawn),"inconclusive: 0.355 µM [inhibitor, full curve]",–,–
COC(=O)c1ccc2nc(C[C@@H]3C[C@@H](C(C)C)[C@H](CNC4CCCCC4)C=C3C)[nH]c2c1,"inconclusive: 0.398 µM [inhibitor, full curve, poor fit]",–,–
Cc1noc(C)c1-c1cc2cc(CN(C)C)oc2c(NCc2cccc(F)c2)n1,"inconclusive: 1.12 µM [inhibitor, partial curve, poor fit]",–,–
COC[C@@H]1CN(Cc2ccc(F)cc2Cl)C[C@H]1C(=O)NC1CC1,"inconclusive: 3.16 µM [inhibitor, full curve]",–,–
CC(=O)C1=C(c2ccc(Cl)c(Cl)c2)N(C(C)=O)n2cnnc2S1,active: 1.12 µM,–,–
COc1cccc([C@H]2CN(C(=O)c3ccc4cc[nH]c4c3)C[C@@H]2N)c1,–,inactive: -15.9%,–
O=C1CN(C(=O)COc2ccc(Cl)cc2)C(c2ccc(F)cc2)c2cc(Br)ccc2N1 (stereo not drawn),"inconclusive: 11.2 µM [inhibitor, single point]",–,–
Cc1ccc(OCCC2CCN(C(=O)CCCC(=O)n3nc(C)c4ccccc43)C2)cc1 (stereo not drawn),"inconclusive: 8.91 µM [inhibitor, partial curve, poor fit]",–,–
CCS(=O)(=O)c1nc(S(=O)(=O)c2ccc(C)cc2)c(NCC(C)C)s1,"inconclusive: 10 µM [inhibitor, single point]",–,–
Cc1nc2n(c1C(=O)N(C)c1ccccc1)CCC(Nc1ccc(F)cc1)C2 (stereo not drawn),–,inactive: -22.2% [at 44.1 µM],–
COCC(=O)NC[C@H]1OC[C@@H](NCc2cccc(C#N)c2)[C@@H]1O,–,inactive: -2.56% [at 44.1 µM],–
COc1cc(NC(=O)c2cc3ccc4cccnc4c3[nH]2)cc(OC)c1OC,"inconclusive: 11.2 µM [inhibitor, partial curve]",–,–
CC(Nc1ccc(-c2nc(-c3ccco3)no2)cc1[N+](=O)[O-])c1ccccc1 (stereo not drawn),"inconclusive: 11.2 µM [inhibitor, single point]",–,–
